Data as given in the CheMixHub viscosity set.
± gives the uncertainty stated by the source. This continues a long series; more values of the same kind are listed elsewhere.

Test: xn = mol fraction of the nth substance listed
Settings: 318.15 K, 101 kPa

NCCN + OCCCCO
viscosity (x1 = 0.0733): 31.1 ± 1.5 mPa·s | viscosity (x1 = 0.1427): 31.2 ± 1.6 mPa·s
